# Results from the supplement of paper PMC4166925.
# ± gives the standard deviation of the averaged measurements. In all, about 33,000 sequences were measured (“E-score (dimensionless, -0.5 to 0.5)”: median about -0.049, highest 2% from about 0.37 on). The list shows a part of the results.
# Test system: T1, PmTbr T-box DNA-binding domain (GST fusion)
# T1 sequence: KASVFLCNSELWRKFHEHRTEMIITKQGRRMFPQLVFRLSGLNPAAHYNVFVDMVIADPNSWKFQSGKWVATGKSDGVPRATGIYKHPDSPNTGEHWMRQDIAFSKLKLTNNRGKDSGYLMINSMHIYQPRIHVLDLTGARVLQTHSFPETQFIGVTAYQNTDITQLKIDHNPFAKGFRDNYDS
# Test: PBM E-score of 8-mer (E-score (dimensionless, -0.5 to 0.5)); Tbr is Tbrain of the sea star Patiria miniata (Pm) or the sea urchin Strongylocentrotus purpuratus (Sp); higher = stronger binding preference; most listed sequences are background and not binding sites
# Conditions: the construct has about 5 more residues each side
# Outline: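 Primer extension turned Universal Agilent oligonucleotide arrays double-stranded. They were incubated with 200 nM protein in PBS (pH 7.5); the protein was a GST-fused Tbr T-box DNA-binding domain expressed in BL21 E. coli at 20 °C and purified on glutathione. Every ungapped 8-mer was scored from the scanned, quantified probe intensities, and the Universal PBM Analysis Suite gave each an enrichment E-score averaged over duplicate arrays.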
row,Sequence,PBM E-score of 8-mer
1,AACTTTGT,0.102 ± 0.084
2,CACGGGCA,-0.054 ± 0.0068
3,ATCACTTC,0.293 ± 0.015
4,AGACCCTC,-0.0721 ± 0.039
5,CCCTTAAC,-0.0895 ± 0.049
6,CGTGGAAG,0.00548 ± 0.012
7,CGCCTTAA,0.102 ± 0.025
8,GGGGGACA,-0.192 ± 0.053
9,GGACCTAA,-0.0476 ± 0.0062
10,CATTCACG,0.229 ± 0.041
11,GGTGTGGA,0.432 ± 0.015
12,AGAGGTCA,-0.0997 ± 0.006
13,CGCCGTGA,0.0902 ± 0.039
14,CACGGGGC,-0.0328 ± 0.01
15,ATATAATA,-0.307 ± 0.026
16,GGGTAACA,0.218 ± 0.064
17,CACGCGTC,0.277 ± 0.041
18,CGCCATGC,-0.00622 ± 0.076
19,CAGAATGA,-0.269 ± 0.049
20,GAAATGAA,0.0917 ± 0.012
21,ATCCTTGC,-0.0517 ± 0.022
22,AACCATTG,-0.14 ± 0.016

row,Sequence,PBM E-score of 8-mer
1,CCAAAGCA,-0.0538 ± 0.051
2,AATTACCC,-0.193 ± 0.032
3,CCAGAACC,-0.246 ± 0.022
4,CCCTAGCA,0.0225 ± 0.093
5,GCTCTGCC,-0.0653 ± 0.041
6,AGCTTGGG,-0.129 ± 0.044
7,GGTTTGCA,0.0665 ± 0.055
8,CGACGAAG,0.135 ± 0.016
9,GTGTAGAA,0.164 ± 0.051
10,CTATAGAC,-0.218 ± 0.0032
11,ACTACCTA,-0.155 ± 0.017
12,CATTGAGA,0.184 ± 0.024
13,GGATTCCC,-0.18 ± 0.031
14,GGGTTAAC,-0.0918 ± 0.013
15,CAGCGTCA,0.0544 ± 0.014
16,CCAGGTCA,-0.0521 ± 0.032
17,AGCAAACA,0.0237 ± 0.023
18,TGGCTCAA,0.104 ± 0.079
19,AATCTGAT,-0.141 ± 0.16
20,CCTCTTAC,-0.0159 ± 0.024
21,CGTTCAAA,0.0323 ± 0.058
22,CATTGCGA,-0.0207 ± 0.036

row,Sequence,PBM E-score of 8-mer
1,AGTTCCTG,0.0662 ± 0.015
2,ACCAGTTA,-0.16 ± 0.033
3,CGCTGTCA,0.162 ± 0.0054
4,AGTGTCTC,0.183 ± 0.047
5,CCGTTTAA,-0.145 ± 0.086
6,AATCCTCG,-0.0177 ± 0.0031
7,GATGTTGC,-0.0903 ± 0.014
8,ACAGACTC,-0.222 ± 0.028
9,CACCCACG,0.254 ± 0.036
10,ATATGGCA,0.0088 ± 0.064
11,GCTGCCAA,0.118 ± 0.066
12,CACACAGG,0.119 ± 0.044
13,AAATCGTA,0.0368 ± 0.024
14,GTGTGTGA,0.41536 ± 0.00023
15,GAATGGTA,-0.0684 ± 0.07
16,ATGGCAAC,0.037 ± 0.015
17,GTTCTTCA,-0.0618 ± 0.02
18,CACTGCAC,0.0832 ± 0.0064
19,AGTTCTTG,-0.0105 ± 0.0029
20,CGGAATAA,-0.0824 ± 0.028
21,ATGGTAAA,-0.237 ± 0.029
22,AAGATCGT,-0.214 ± 0.0059

row,Sequence,PBM E-score of 8-mer
1,CTTTTTAC,-0.135 ± 0.049
2,CAGGGTCG,0.195 ± 0.05
3,AAAGATCC,-0.0828 ± 0.036
4,AGGTTCCG,-0.191 ± 0.011
5,CTCTTTTA,0.105 ± 0.092
6,TGCACAAA,0.142 ± 0.03
7,AGCCATAC,-0.241 ± 0.042
8,CCCGGATC,-0.085 ± 0.022
9,AAGGGGGG,-0.444 ± 0.023
10,ACTAGGGC,-0.223 ± 0.012
11,ATCCAAAG,-0.212 ± 0.015
12,CGCCGCCG,0.0672 ± 0.087
13,CACAGCGC,0.0941 ± 0.012
14,GTCCTAAC,-0.0938 ± 0.0047
15,CAATCGTA,-0.122 ± 0.015
16,CGGTCTAG,-0.254 ± 0.037
17,GGAGGGCA,-0.0993 ± 0.068
18,CAATTTCA,-0.00885 ± 0.039
19,AAAATACG,0.0554 ± 0.091
20,GACTCTAC,-0.23 ± 0.054
